“And” between values parts separate entries of the source, which are not always exact repeats. Equal values may be shown once. Out of some 420,000 compounds screened, about 50,000 (12%) were called active. Inconclusive means that the source gave no clear call. Such entries were picked first, then a sample of the others. Calls follow the shape of the dose curve; as a rule, active = well fitted inhibition curve with a large enough effect; inconclusive = small, poorly fitted or top-dose-only effect; inactive = flat fitted curve, though single readings scatter. No potency is given beside an inconclusive call; the fits are too rough.
assay: qHTS for Inhibitors of human tyrosyl-DNA phosphodiesterase 1 (TDP1): qHTS in cells in presence of CPT; settings: chicken DT40 Tdp1-/-;hTDP1 cells + 20 nM CPT, ATP luminescence, 48 h; activity change, negative = growth inhibition: at 46.2 µM (top of the series); also: nearly all actives have a fitted effect of over 55% in size
Summary of the method: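 Cell growth measured by CellTiter-Glo luminescence after a minimum 48 h, 37 C compound exposure with 20 nM CPT in Tdp1-knockout DT40 cells stably expressing hTDP1, seeded 400/well; qHTS titration format.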
% is scaled to controls: 0 for no effect and ±100 for the full control effect; potency is read from the fitted curve at half-maximal effect; tags tell the direction and shape of the fitted curve.

Row | SMILES | Potency | activity change, negative = growth inhibition
1 | CCOC(=O)c1ccc(NC(=O)CSc2nc(-c3ccc(OC)cc3)cc(C(F)(F)F)c2C#N)cc1 | inconclusive [inhibitor, single point] | –
2 | CCOC(=O)C1C(=O)C=C(/C=C/c2ccccc2)CC1c1ccc(Cl)cc1 (centres undefined) | active: 29.1 µM | –
3 | COc1ccc(C)cc1NC(=O)Cn1c(=O)oc2cc(S(=O)(=O)N3CCCCC3)ccc21 | inconclusive [inhibitor, single point] | –
4 | Cc1ccc(Nc2ccc3cc(S(=O)(=O)N4CCCCC4)ccc3n2)cc1F | inconclusive [inhibitor, single point] | –
5 | Cc1ccc(C)c(OCCC(=O)OCC(=O)NCc2ccccc2)c1 | – | inactive: -1.61%
6 | Cn1cnc([N+](=O)[O-])c1Cl | inconclusive [inhibitor, single point] | –
7 | O=C(Cc1ccc(Cl)c(Cl)c1)NNC(=S)NCC1CCCO1 (centres undefined) | – | inactive: -3.03%
8 | COc1cccc(CNC(=O)c2cccc(NC(=O)CC3SC(N4CCCCC4)=NC3=O)c2)c1 (centres undefined) | inconclusive [inhibitor, partial curve, poor fit] | –
9 | COc1ccc(-c2cc3nc(C)c(CCC(=O)NCc4ccccc4Cl)c(C)n3n2)c(OC)c1 | active: 18.4 µM | –
10 | Cc1ccc(C(=O)N=c2sccn2C)cc1S(=O)(=O)N1CCOCC1 | inconclusive [inhibitor, single point] | –
11 | O=C(NCCCc1ccccc1)C(=O)NCC1OCCN1S(=O)(=O)c1cc(F)ccc1F (centres undefined) | inconclusive [inhibitor, single point] | –
12 | O=C(CN1CCN(c2ccccn2)CC1)Nc1cccc(F)c1 | – | inactive: -0.734%
13 | O=C(O)/C=C/c1cn(-c2ccccc2)nc1-c1cc2ccccc2oc1=O | – | inactive: -21.7%
14 | COc1ccc(N(CC(=O)N2CCN(c3ccccc3)CC2)S(=O)(=O)c2c(C)nn(C)c2C)cc1 | – | inactive: 4.03%
15 | COc1ccc(Nc2nccc(-c3ccc(C#N)cc3)n2)cc1 | – | inactive: -6.62%
16 | CC1(C)Cc2nc3oc4c(=O)n(CC(=O)Nc5cccc(Cl)c5)cnc4c3cc2CO1 | inconclusive [inhibitor, single point] | –
17 | Cc1ccc(S(=O)(=O)N2CCC[C@H]2C(=O)NC2CCCCC2)cc1 | inconclusive [inhibitor, single point] | –
18 | Cc1ccc(NCC(=O)N/N=C/c2cc3ccccc3nc2Cl)cc1 | active: 23.1 µM | –
19 | COC(CNC(=O)CCc1c(C)nc2c(-c3ccc(F)cc3)c(C)nn2c1C)OC | – | inactive: -11.5%
20 | COC(=O)c1sccc1-n1cccc1C(=O)C(=O)N1CC(C)OC(C)C1 (centres undefined) | – | inactive: -18.3%
21 | CN1CCOCCOCCN(C)C1=O | – | inactive: -15.9%
22 | CCn1c(C)c(C(C)=O)c(SC)nc1=S | – | inactive: -7.55%
23 | O=C(CCC1CCCC1)N1CCc2c([nH]c3ccccc23)C1c1ccc(F)cc1 (centres undefined) | inconclusive [inhibitor, single point] | –
24 | CC(=O)c1ccc(NC(=O)c2cn(-c3ccccc3)nc2-c2ccc(Br)cc2)cc1 | inconclusive [inhibitor, partial curve] | –
25 | Cc1cccc2sc(N(CCCN(C)C)C(=O)c3nc4ccccc4s3)nc12 | active: 13 µM | –

Row | SMILES | Potency | activity change, negative = growth inhibition
26 | CCOc1ccc(NC(=O)NCCN2CCN(c3cccc(C)c3C)CC2)cc1 | active: 23.1 µM and active: 20.6 µM | –
27 | Cc1ccc(NC(=O)C(=O)NCCCN2CCOCC2)c(C)c1 | – | inactive: -12.2%
28 | COc1ccccc1N1CCN(C2CCCN(C(=O)Cn3cccn3)C2)CC1 (centres undefined) | – | inactive: -2.15%
29 | CCc1cccc(C)c1NC(=O)C1CCN(S(=O)(=O)c2c(C)noc2/C=C/c2c(C)cc(C)cc2C)CC1 | inconclusive [inhibitor, partial curve] | –
30 | N#Cc1nc(COc2ccccc2Cl)oc1NCCc1ccccc1 | inconclusive [inhibitor, single point] | –
31 | CC1CCCN(S(=O)(=O)c2ccc(C(=O)Nc3nnc(-c4ccccn4)o3)cc2)C1 (centres undefined) | inconclusive [inhibitor, single point] | –
32 | CSCC[C@H](NC(=O)OC(C)(C)C)C(=O)N/N=C/c1cccc2cccnc12 | active: 25.9 µM | –
33 | Cc1cccc(N/N=C(\C#N)S(=O)(=O)C(C)(C)C)c1 | – | inactive: 3.83%
34 | CCc1nnc(SC(CC)C(=O)Nc2ccc(OC)c(Cl)c2)c2cc3occc3n12 (centres undefined) | inconclusive [inhibitor, single point] | –
35 | CCCOc1ccc([N+](=O)[O-])cc1C1NC(=S)NC(c2ccccc2)=C1C(=O)OCC (centres undefined) | inconclusive [inhibitor, single point] | –
36 | CCCCN(C=O)c1c(CC)nc2ccc(C(=O)NCc3ccccc3OC)cn12 | inconclusive [inhibitor, single point] | –
37 | Cc1cccc(C(=O)NC(C(=O)Nc2nc(-c3ccccn3)cs2)C(C)C)c1 (centres undefined) | active: 13 µM | –
38 | FCCCOc1ccc(/C=N/OCc2ccc(Cl)cc2)cc1 | – | inactive: -1.66%
39 | CCN1CCC(NC(=O)Nc2cccc(C(F)(F)F)c2)CC1 | – | inactive: -1.82%
40 | COc1ccc(C(=O)O)cc1S(=O)(=O)N1CCSCC1 | – | inactive: -0.242%
41 | O=C(NCc1ccccc1)C1c2ccccc2OCC(=O)N1Cc1ccc2c(c1)OCO2 (centres undefined) | inconclusive [inhibitor, single point] | –
42 | Cc1ccc(CNC(=O)c2cc(C)nn2-c2ccccc2)cc1 | – | inactive: -24.9%
43 | CC(=NNC(=S)Nc1cccc(Cl)c1)c1ccccn1 | active: 0.082 µM | –
44 | CCN(CC)S(=O)(=O)c1ccc(NC(=O)CN(c2cccc(C)c2)S(C)(=O)=O)cc1 | inconclusive [inhibitor, single point] | –
45 | N#C/C(=C(/O)COC(=O)COc1ccc(Cl)cc1)c1nc2ccccc2[nH]1 | active: 4.11 µM | –
46 | O=C(N/N=C/c1cc2cc3c(cc2nc1Cl)OCCO3)c1ccccc1O | inconclusive [inhibitor, single point] | –
47 | O=c1c2c(-c3ccc(Cl)cc3)csc2nc2n1CCC2 | – | inactive: -6.19%
48 | C=CCOc1ccc(C(=O)N(Cc2ccc(N(C)C)cc2)C2CCS(=O)(=O)C2)cc1 (centres undefined) | – | inactive: -7.67%
49 | Nc1ccc(C(=O)NC2CCSc3ccccc32)cc1[N+](=O)[O-] (centres undefined) | inconclusive [inhibitor, partial curve] | –
50 | COc1ccc(N2CCN(Cc3nc4c(c(=O)n(C)c(=O)n4C)n3Cc3ccccc3C)CC2)cc1 | active: 18.4 µM | –

Row | SMILES | Potency | activity change, negative = growth inhibition
51 | CNC(C)C#Cc1ccc2oc3cccc(OC)c3c(=O)c2c1 (centres undefined) | inconclusive [inhibitor, single point] | –
52 | Cc1ccccc1N1CCN(C2CCCN(C(=O)CCc3c(C)noc3C)C2)CC1 (centres undefined) | inconclusive [inhibitor, single point] | –
53 | CCCCn1c(SCC(=O)c2ccc3c(c2)NC(=O)CO3)nc2cc(S(N)(=O)=O)ccc21 | inconclusive [inhibitor, single point] | –
54 | CCn1cc(C(=O)Nc2ccc(OC)c(S(=O)(=O)N3CCCCC3)c2)c(=O)c2ccc(C)nc21 | inconclusive [inhibitor, single point] | –
55 | CCC(=C(c1ccc(OC)cc1)c1ccc(OC)cc1)c1cn(CC(O)CN2CCN(C)CC2)c2ccccc12 (centres undefined) | active: 10.3 µM | –
56 | CCNC(=S)N/N=C/c1cccc(OCc2c(F)cccc2Cl)c1 | inconclusive [inhibitor, single point] | –
57 | CCOc1ccc(C(=O)Cc2ccccc2)cc1 | – | inactive: 21.3%
58 | CC(=O)N/C(=N\c1nc(C)cc(C)n1)Nc1ccc2ccccc2c1 | inconclusive [inhibitor, partial curve] | –
59 | CC(=O)Nc1nc(-c2ccc3c(c2)CCN3C(=O)C2CC2)c(C)s1 | active: 1.46 µM | –
60 | Cc1cc(=O)[nH]c(SCC(=O)N2CCN(C(c3ccccc3)c3ccccc3)CC2)n1 | active: 18.4 µM | –
61 | COc1ccccc1NC(=O)c1c(C)cc(C)nc1SCC(=O)Nc1ccc(C)c(C)c1 | inconclusive [inhibitor, single point] | –
62 | Nc1n[nH]c(C2CC2)c1N=Nc1ccc(Cl)cc1 | – | inactive: -2.69%
63 | COc1cc(C2c3c(oc4ccccc4c3=O)C(=O)N2c2ccc(C)cn2)ccc1O (centres undefined) | inconclusive [inhibitor, single point] | –
64 | N#CCSc1nc2ccc(N3CCOCC3)cc2c(=O)n1CCc1ccccc1 | active: 23.1 µM | –
65 | Cc1cc(O)ccc1NS(=O)(=O)c1ccc2c3c(cccc13)C(=O)N2 | – | inactive: -5.16%
66 | COc1nnc(-c2ccc(N3CCOCC3)c(NC(=O)C3CCCCC3)c2)c2ccccc12 | inconclusive [inhibitor, single point] | –
67 | COc1ccccc1CNC(=O)CCCn1c(=O)c2ccccc2n(Cc2ccc(F)cc2)c1=O | active: 16.4 µM | –
68 | COc1ccc(CC(=O)N(c2ccccc2)c2nc(C)cs2)cc1 | active: 18.4 µM | –
69 | C=CCn1c(=O)/c(=C/c2ccc(F)cc2)s/c1=C(\C#N)c1nnc2n1CCCCC2 | active: 23.1 µM | –
70 | COc1cccc(-c2nc(Cl)nc3cc(Cl)ccc23)c1 | inconclusive [inhibitor, partial curve] | –
71 | COc1ccc(Cn2nnnc2C(c2ccc(N(C)C)cc2)N2CCC(C(N)=O)CC2)cc1 (centres undefined) | – | inactive: 1.71%
72 | Cc1ccc(C2=NN(C(=O)CSc3nccn3C)C(c3ccco3)C2)cc1 (centres undefined) | active: 20.6 µM | –
73 | COc1ccc(CNC(=O)[C@@H]2CC=C[C@@H]3CCN(Cc4ccccc4)C(=O)[C@@H]32)cc1 | inconclusive [inhibitor, single point] | –
74 | CCOc1ccc(CN2CCN(Cc3cnc(-c4ccccc4)s3)CC2CCO)cc1 (centres undefined) | inconclusive [inhibitor, single point] | –

— PubChem BioAssay AID686979 (National Center for Advancing Translational Sciences (NCATS), 2013)
